# Data from PubChem BioAssay AID1631 (National Center for Advancing Translational Sciences (NCATS), 2009).
# The whole screen tested about 260,000 compounds, of which about 890 (0.34%) were called active. This list was built around the results that the source calls inconclusive (neither active nor inactive); the mix of calls is not that of the screen. The call rests on the fitted dose curve; in most records, active means well fitted activation curve with a large enough effect; inconclusive means small, poorly fitted or top-dose-only effect; inactive means no such curve, though single readings can be large or run the other way. Potencies of inconclusive entries are left out as doubtful fits.
# Target: Pyruvate kinase PKM (Homo sapiens) (UniProt P14618)
# Experiment: qHTS Assay for Activators of Human Muscle isoform 2 Pyruvate Kinase; further: nearly all actives have a fitted effect of over 55% in size
# Details: purified PKM2, Kinase-Glo ATP luminescence; Potency: activation; activation: at 57.5 µM (top of the series), 0% is enzyme alone, no compound
# Method in brief: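 ATP formation by purified human PK-M2, quantified via coupled luciferase luminescence after 1 h at room temperature with 0.1 mM ADP and 0.5 mM PEP final.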
# Potency means the concentration at half of the fitted maximal effect; tags describe the fitted curve by direction and shape.
# Chain of UniProt P14618 (P14618 whole entry, looked up, canonical isoform): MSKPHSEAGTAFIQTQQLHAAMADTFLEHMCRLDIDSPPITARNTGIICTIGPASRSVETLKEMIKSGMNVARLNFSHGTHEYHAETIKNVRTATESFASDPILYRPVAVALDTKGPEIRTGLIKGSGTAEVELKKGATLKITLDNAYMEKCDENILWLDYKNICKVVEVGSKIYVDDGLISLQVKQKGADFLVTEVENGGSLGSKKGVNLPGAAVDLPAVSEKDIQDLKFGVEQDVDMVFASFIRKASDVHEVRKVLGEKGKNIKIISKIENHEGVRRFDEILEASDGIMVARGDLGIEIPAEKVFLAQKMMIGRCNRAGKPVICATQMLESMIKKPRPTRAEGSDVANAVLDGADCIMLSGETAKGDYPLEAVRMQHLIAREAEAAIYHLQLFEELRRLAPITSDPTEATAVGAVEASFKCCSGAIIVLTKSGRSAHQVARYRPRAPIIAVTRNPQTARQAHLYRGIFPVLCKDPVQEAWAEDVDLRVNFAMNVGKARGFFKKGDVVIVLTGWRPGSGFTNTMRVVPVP
row,SMILES,Potency
1,CCCCc1nc(NCCNC(=O)c2ccccc2)c(C#N)c2c1CSC(C)(C)C2,inactive
2,COCCNC(=S)Nc1ccc(S(=O)(=O)Nc2ncccn2)cc1,"inconclusive [rising, partial curve]"
3,C=CCSc1nc2ccccc2n1Cc1nnc(-c2cccs2)o1,"inconclusive [rising, single point]"
4,CCNC(=O)C(Sc1ccccc1)c1ccccc1 (stereo not given),"inconclusive [rising, full curve, poor fit]"
5,CC[C@@H](C)[C@H](NC(=O)OC(C)(C)C)c1nnc(S(=O)(=O)Cc2cc(C)ccc2C)o1,"inconclusive [rising, single point]"
6,O=C1/C(=C/c2cccnc2)N=C2CCCCCN12,"inconclusive [rising, single point]"
7,O=C(COC(=O)c1ccc(NS(=O)(=O)c2ccc3c(c2)OCCO3)cc1)NC1CC1,"inconclusive [rising, partial curve]"
8,CCCCC1=CC2=C(c3ccco3)C(=O)C(C)(OC(=O)c3ccc(OC)cc3)C(=O)C2=CN1Cc1ccc(OC)cc1 (stereo not given),"inconclusive [rising, full curve]"
9,Cn1c2ccccc2c2nnc(SCC(=O)Nc3ccccc3F)nc21,"inconclusive [rising, single point]"
10,Cc1ccc(CNC(=O)c2cn(C)c(=O)c3c2c2ccccc2n3C)o1,"inconclusive [rising, full curve]"
11,COP(=O)(OC)c1nc(-c2cccc3ccccc23)oc1N1CCCCC1,inactive
12,CC(=O)Nc1ccc(SCC(=O)c2c(N)n(Cc3ccccc3)c(=O)n(C)c2=O)cc1,"inconclusive [rising, single point]"
13,Cc1nc(SCC(=O)CC(=O)OC(C)C)c(C#N)c(C)c1C,inactive
14,CN(C)c1ccc(C=C2C(=O)OC3(CCCC3)OC2=O)cc1,"inconclusive [rising, single point]"
15,O=S(=O)(NC1CC1)c1ccc(S(=O)(=O)N2CCC3(CC2)OCCO3)cc1,"inconclusive [rising, single point]"
16,O=C(CCc1ccccc1)N1CCN(S(=O)(=O)c2cccs2)CC1,active: 3.55 µM
17,Cn1c(=O)oc2cc(S(=O)(=O)Nc3ccccc3O)ccc21,active: 14.1 µM
18,Cc1ccc(Nc2nc3ccccc3s2)c(C)c1,inactive
19,O=C(c1cc(Cl)c(=O)n(Cc2ccccc2)c1)N1CCOCC1,"inconclusive [rising, partial curve]"
20,CCn1c(=O)cc(OCC(=O)NCc2ccc(C)o2)c2ccccc21,"inconclusive [rising, full curve]"
21,O=C(Nc1ccccc1O)c1cccc(NC(=O)c2ccco2)c1,inactive
22,Cc1ccc(S(=O)(=O)/N=c2\sccn2C)cc1,active: 17.8 µM
23,Clc1ccccc1C1=Nn2c(nnc2-c2ccncc2)SC1,inactive

row,SMILES,Potency
1,COC(=O)c1ccc(S(=O)(=O)c2ccccc2)c(N)c1,"inconclusive [rising, partial curve]"
2,Cn1c(CNC(=O)Cc2ccc3c(c2)OCO3)nnc1SCc1ccccc1,"inconclusive [rising, single point]"
3,COCCNS(=O)(=O)c1ccc2c(c1)C(=O)c1cc(S(=O)(=O)NCCOC)ccc1-2,"inconclusive [rising, full curve, poor fit]"
4,Cc1cc(C)c(S(=O)(=O)c2ccccc2)c(OC(=O)c2c(F)cccc2F)n1,inactive
5,COc1ccc(CCNC(=O)COc2ncnc3cc([N+](=O)[O-])ccc23)cc1,inactive
6,O=C(O)c1cc(S(=O)(=O)N2CCN(c3ccccn3)CC2)ccc1Cl,"inconclusive [rising, single point]"
7,CS(=O)(=O)Nc1ccc(C2=NN(C(=O)c3ccco3)C(c3ccc(F)cc3)C2)cc1 (stereo not given),active: 12.6 µM
8,CS(=O)(=O)c1ccc(C(=O)NCCN2C(=O)S/C(=C\c3cccnc3)C2=O)cc1[N+](=O)[O-],"inconclusive [rising, single point]"
9,O=C(c1ccc2c(=O)n3c(nc2c1)CCCCC3)N1CCN(Cc2ccccc2)CC1,"inconclusive [rising, full curve]"
10,Cc1cccc2c1c1ccc3c(c1n2C)C(=O)C=CC3=O,"inconclusive [rising, full curve, poor fit]"
11,COc1ccc(C2Nc3ccccc3C(=O)N2Cc2ccco2)cc1COc1ccc(F)cc1 (stereo not given),active: 14.1 µM
12,O=c1[nH]cc(I)cc1I,"inconclusive [rising, single point]"
13,S=C(c1ccc(Br)cc1)N1CCN(Cc2ccccc2)CC1,inactive
14,NC(=O)[C@@H]1[C@@H]2C(=O)N(c3ccc(F)cc3)C(=O)[C@@H]2[C@H]2C=Cc3ccccc3N21,"inconclusive [rising, partial curve]"
15,O=C(c1ccc(O)cc1)c1ccc(C(=O)c2ccc(O)cc2)cc1,"inconclusive [rising, single point]"
16,COc1cccc(NC(=O)CN(C)C(C)C(=O)Nc2ccc(S(=O)(=O)N3CCOCC3)cc2)c1 (stereo not given),"inconclusive [rising, partial curve, poor fit]"
17,CCc1cc2c(SCC(=O)N3CC(=O)Nc4ccccc43)ncnc2s1,"inconclusive [rising, partial curve]"
18,Nc1nnc(CC(=O)N/N=C/c2ccc(-c3ccccc3Cl)o2)s1,"inconclusive [rising, single point]"
19,O=C(N/N=C/c1ccc(N2CCOCC2)o1)c1ccccc1[N+](=O)[O-],"inconclusive [rising, full curve]"
20,CC1=C(C#N)C(=O)NC(=O)/C1=C\c1ccc(-c2cc(C)c(C)cc2[N+](=O)[O-])o1,"inconclusive [rising, single point]"
21,CC(=O)C(Sc1nc(N2CCOCC2)nc(N2CCOCC2)n1)C(=O)Nc1ccccc1 (stereo not given),inactive
22,O=c1c2sccc2nc(SCc2ccc([N+](=O)[O-])cc2)n1Cc1ccccn1,"inconclusive [rising, partial curve]"
